# Experimental data: publication PMC11149917, “Translational and Therapeutic Evaluation of RAS-GTP Inhibition by RMC-6236 in RAS-Driven Cancers” (Cancer Discovery, 2024)
# The source gives many values for each of these; only a part stands here.
# System: PRISM panel of 845 cancer cell lines
# Assay: PRISM assay
# Format: cell-based, human
# Procedure: The PRISM cell set comprised 845 cell lines representing more than 45 lineages (see Supplementary Table S1 for cell line information), which largely overlapped with the Cancer Cell Line Encyclopedia; https://portals.broadinstitute.org/ccle). Cell lines were grown in RPMI without phenol red and supplemented with 10% or 20% FBS for adherent and suspended lines, respectively. Parental cell lines were stably infected with a unique 24-nucleotide DNA barcode via lentiviral transduction and blasticidin selection. After selection, barcoded cell lines were expanded and subjected to quality control (Mycoplasma contamination test, an SNP test for confirming cell line identity, and barcode ID confirmation). Approved cell lines were then pooled (20–25 cell lines per pool) based on doubling time similarity and frozen in assay-ready vials.
# RMC-6236 was added to 384-well plates at 8-point concentration with 3-fold dilutions in triplicate. These assay-ready plates were then seeded with the thawed cell line pools. Adherent cell pools were plated at 1,250 cells per well, whereas suspension and mixed adherent/suspension pools were plated at 2,000 cells per well. Treated cells were incubated for 5 days, and then lysed. Lysate plates were collapsed together prior to barcode amplification and detection.
# Each cell line's unique barcode is located in the 3′UTR of the blasticidin-resistance gene and therefore is expressed as mRNA. Total mRNA was captured using magnetic particles that recognize polyA sequences. Captured mRNA was reverse-transcribed into cDNA and then the sequence containing the unique PRISM barcode was amplified using PCR. Finally, Luminex beads that recognize the specific barcode sequences in the cell set were hybridized to the PCR products and detected using a Luminex scanner which reports the signal as a median fluorescent intensity (MFI).
# • Each detection well contained 10 control barcodes in increasing abundances as spike-in controls. For each plate, we first create a reference profile by calculating the median of the log2(MFI) values across negative control wells for each of these spiked-in barcodes. • For each well, a monotonic smooth p-spline was fitted to map the spike-in control levels to the reference profile. Next, we transform the log2(MFI) for each cell barcode using the fitted spline to allow well-to-well comparisons by correcting for amplification and detection artifacts. • Next, the separability between negative and positive control treatments was assessed. In particular, we calculated the error rate of the optimum simple threshold classifier between the control samples for each cell line and plate combination. The error rate is a measure of the overlap of the two control sets and was defined as error = (FP + FN)/n, where FP is false positives, FN is false negatives, and n is the total number of controls. A threshold was set between the distributions of positive and negative control log2(MFI) values (with everything below the threshold said to be positive and above said to be negative) such that this value is minimized. Additionally, we also calculated the dynamic range of each cell line. […] Additionally, any cell line that had less than 2 passing replicates was also omitted for the sake of reproducibility. Finally, we computed viability by normalizing with respect to the median negative control for each plate.
# For every gene with nonsilent mutations in at least four cell lines, we compared the AUC values between cells with and without those mutations using a t test. This analysis was carried out for (i) the full data set; (ii) excluding cell lines with nonsilent KRAS mutations; and (iii) excluding cell lines that have either KRAS or NRAS nonsilent mutations.
structure (smiles),measurement,setting,value
CCn1c(-c2cc(N3CCN(C)CC3)cnc2[C@H](C)OC)c2c3cc(ccc31)-c1csc(n1)C[C@H](NC(=O)[C@H]1C[C@@H]1C)C(=O)N1CCC[C@H](N1)C(=O)OCC(C)(C)C2 [RMC-6236],RMC-6236: RevMed PRISM: AUC,cell line NCIH1092_LUNG,0.5942
same,RMC-6236: RevMed PRISM: AUC,"cell line NCIH1355_LUNG, KRAS p.G13C",0.7086
same,RMC-6236: RevMed PRISM: AUC,cell line NCIH1838_LUNG,0.7614
same,RMC-6236: RevMed PRISM: AUC,cell line NCIH2004RT_SOFT_TISSUE,0.7903
same,RMC-6236: RevMed PRISM: AUC,"cell line NCIH2122_LUNG, KRAS p.G12C",0.5446
same,RMC-6236: RevMed PRISM: AUC,cell line NCIH2126_LUNG,0.8436
same,RMC-6236: RevMed PRISM: AUC,cell line NCO2_HAEMATOPOIETIC_AND_LYMPHOID_TISSUE,0.8057
same,RMC-6236: RevMed PRISM: AUC,"cell line NZOV9_OVARY, KRAS p.T20A",0.4737
same,RMC-6236: RevMed PRISM: AUC,cell line OC314_OVARY,0.8682
same,RMC-6236: RevMed PRISM: AUC,cell line OC316_OVARY,0.7843
same,RMC-6236: RevMed PRISM: AUC,cell line OCIAML2_HAEMATOPOIETIC_AND_LYMPHOID_TISSUE,0.6488
same,RMC-6236: RevMed PRISM: AUC,"cell line OCIAML3_HAEMATOPOIETIC_AND_LYMPHOID_TISSUE, NRAS p.Q61L",0.3731
same,RMC-6236: RevMed PRISM: AUC,cell line OCIAML5_HAEMATOPOIETIC_AND_LYMPHOID_TISSUE,0.5099
same,RMC-6236: RevMed PRISM: AUC,cell line OCIC5X_OVARY,0.7352
same,RMC-6236: RevMed PRISM: AUC,cell line OCILY3_HAEMATOPOIETIC_AND_LYMPHOID_TISSUE,0.9011
same,RMC-6236: RevMed PRISM: AUC,cell line OCILY18_HAEMATOPOIETIC_AND_LYMPHOID_TISSUE,0.7598
same,RMC-6236: RevMed PRISM: AUC,"cell line OCILY19_HAEMATOPOIETIC_AND_LYMPHOID_TISSUE, NRAS p.Q61K",0.4103
same,RMC-6236: RevMed PRISM: AUC,cell line OCIM1_HAEMATOPOIETIC_AND_LYMPHOID_TISSUE,0.5915
same,RMC-6236: RevMed PRISM: AUC,cell line OCIP5X_OVARY,0.9925
same,RMC-6236: RevMed PRISM: AUC,cell line OE33_OESOPHAGUS,0.6679
same,RMC-6236: RevMed PRISM: AUC,"cell line ONS76_CENTRAL_NERVOUS_SYSTEM, NRAS p.Q61R",0.4401
same,RMC-6236: RevMed PRISM: AUC,"cell line OVCAR8_OVARY, KRAS p.P121H",0.8663
same,RMC-6236: RevMed PRISM: AUC,cell line OVISE_OVARY,0.9548
same,RMC-6236: RevMed PRISM: AUC,"cell line OVK18_OVARY, KRAS p.A59G",0.8365
same,RMC-6236: RevMed PRISM: AUC,"cell line PA1_OVARY, NRAS p.G12D",1
same,RMC-6236: RevMed PRISM: AUC,cell line PC3_PROSTATE,0.9371
same,RMC-6236: RevMed PRISM: AUC,cell line PECAPJ15_UPPER_AERODIGESTIVE_TRACT,0.7052
same,RMC-6236: RevMed PRISM: AUC,cell line PECAPJ41CLONED2_UPPER_AERODIGESTIVE_TRACT,0.6126
same,RMC-6236: RevMed PRISM: AUC,cell line PECAPJ49_UPPER_AERODIGESTIVE_TRACT,0.5656
same,RMC-6236: RevMed PRISM: AUC,cell line PEDS005TSUSP_KIDNEY,0.665
same,RMC-6236: RevMed PRISM: AUC,"cell line PK45H_PANCREAS, KRAS p.G12D",0.7154
same,RMC-6236: RevMed PRISM: AUC,"cell line RCHACV_HAEMATOPOIETIC_AND_LYMPHOID_TISSUE, KRAS p.V14I, HRAS p.A11T",0.9332
same,RMC-6236: RevMed PRISM: AUC,cell line RCK8_HAEMATOPOIETIC_AND_LYMPHOID_TISSUE,0.8295
same,RMC-6236: RevMed PRISM: AUC,"cell line RCM1_LARGE_INTESTINE, KRAS p.G12V",0.2686
same,RMC-6236: RevMed PRISM: AUC,"cell line RD_SOFT_TISSUE, NRAS p.Q61H",0.3982
same,RMC-6236: RevMed PRISM: AUC,cell line RH30_SOFT_TISSUE,0.7963
same,RMC-6236: RevMed PRISM: AUC,cell line RI1_HAEMATOPOIETIC_AND_LYMPHOID_TISSUE,0.8097
same,RMC-6236: RevMed PRISM: AUC,"cell line SCC9_UPPER_AERODIGESTIVE_TRACT, HRAS p.L133R",0.5395
same,RMC-6236: RevMed PRISM: AUC,cell line SEM_HAEMATOPOIETIC_AND_LYMPHOID_TISSUE,0.9033
same,RMC-6236: RevMed PRISM: AUC,cell line SF295_CENTRAL_NERVOUS_SYSTEM,0.8595
same,RMC-6236: RevMed PRISM: AUC,cell line SH4_SKIN,0.9443
same,RMC-6236: RevMed PRISM: AUC,cell line SIMA_AUTONOMIC_GANGLIA,0.7949
same,RMC-6236: RevMed PRISM: AUC,"cell line SISO_CERVIX, KRAS p.G12D",0.5418
same,RMC-6236: RevMed PRISM: AUC,cell line SJSA1_BONE,0.6169
same,RMC-6236: RevMed PRISM: AUC,"cell line SKMEL2_SKIN, NRAS p.Q61R",0.7094
same,RMC-6236: RevMed PRISM: AUC,cell line SKMEL3_SKIN,1
